# In a collection of fitness landscapes (doi:10.1126/science.1257360):
# This is one part of the list.
# B1: PhoQ; a variant is named by its letters at X, in order, P23837 (parent)
# chain: MKKLLRLFFPLSLRVRFLLATAAVVLVLSLAYGMVALIGYSVSFDKTTFRLLRGESNLFYTLAKWENNKLHVELPENIDKQSPTMTLIYDENGQLLWAQRDVPWLMKMIQPDWLKSNGFHEIEADVNDTSLLLSGDHSIQQQLQEVREDDDDAEMTHSVAVNVYPATSRMPKLTIVVVDTIPVELKSSYMVWSWFIYVLSANLLLVIPLLWVAAWWSLRPIEALAKEVRELEEHNRELLNPATTRELTSLVRNLNRLLKSERERYDKYRTTLTDLTHSLKTPLXXLQXXLRSLRSEKMSVSDAEPVMLEQISRISQQIGYYLHRASMRGGTLLSRELHPVAPLLDNLTSALNKVYQRKGVNISLDISPEISFVGEQNDFVEVMGNVLDNACKYCLEFVEISARQTDEHLYIVVEDDGPGIPLSKREVIFDRGQRVDTLRPGQGVGLAVAREITEQYEGKIVAGESMLGGARMEVIFGRQHSAPKDE
# Variants of: B1
# Assay: enrichment ratio after two sorts for PhoP signalling (ratio (wild type AVST 3.29)); higher = more functional
# Conditions: with PhoP (E. coli)
row,Variant,enrichment ratio
1,DLCG,≤ 0.25
2,QIVT,≤ 0.25
3,YFFQ,0.271
4,HFHW,≤ 0.25
5,APMC,≤ 0.25
6,TRVH,0.615
7,SRNM,≤ 0.25
8,FEDT,≤ 0.25
9,TSNG,3.81
10,SACN,9.88
11,DPLQ,≤ 0.25
12,NEHF,≤ 0.25
13,WKWR,≤ 0.25
14,YNWD,≤ 0.25
15,DFGH,≤ 0.25
16,KCWL,≤ 0.25
17,VMDA,≤ 0.25
18,NQVV,≤ 0.25
19,KVHA,≤ 0.25
20,KCRQ,≤ 0.25
21,RMCN,≤ 0.25
22,NGIR,≤ 0.25
23,MPQI,≤ 0.25
24,VCKK,≤ 0.25
25,TFVV,≤ 0.25

row,Variant,enrichment ratio
1,LWEA,≤ 0.25
2,HPFG,≤ 0.25
3,KLCG,≤ 0.25
4,QRDF,≤ 0.25
5,RPDN,≤ 0.25
6,LMSP,≤ 0.25
7,MGNS,≤ 0.25
8,LIWD,≤ 0.25
9,RYPT,≤ 0.25
10,GFPI,≤ 0.25
11,IFCK,≤ 0.25
12,IPCF,≤ 0.25
13,SSQI,10.1
14,QMKD,≤ 0.25
15,WYNH,≤ 0.25
16,KRTD,≤ 0.25
17,WARG,≤ 0.25
18,YLPG,≤ 0.25
19,ESWS,≤ 0.25
20,WKQV,≤ 0.25
21,FDGA,≤ 0.25
22,NCHL,≤ 0.25
23,NAAK,≤ 0.25
24,LIYT,≤ 0.25
25,LSAI,0.256

row,Variant,enrichment ratio
1,RRKF,≤ 0.25
2,MGNR,≤ 0.25
3,FAYT,≤ 0.25
4,HQRL,≤ 0.25
5,MDAR,≤ 0.25
6,VTQY,≤ 0.25
7,LSRL,≤ 0.25
8,WFEP,≤ 0.25
9,VWIA,≤ 0.25
10,TIYG,8.23
11,EMLR,≤ 0.25
12,IFIT,≤ 0.25
13,GVSF,11.8
14,NMPN,≤ 0.25
15,IRYP,≤ 0.25
16,LWNV,≤ 0.25
17,YNVR,≤ 0.25
18,GHAN,≤ 0.25
19,LHVP,≤ 0.25
20,ICGR,≤ 0.25
21,QQMW,≤ 0.25
22,VVKP,≤ 0.25
23,TTVI,6.62
24,TDLT,7.28
25,KYDT,≤ 0.25

row,Variant,enrichment ratio
1,KTIQ,≤ 0.25
2,RPVP,≤ 0.25
3,EQRC,≤ 0.25
4,YDLA,≤ 0.25
5,RDCY,≤ 0.25
6,LRQL,≤ 0.25
7,SRSI,≤ 0.25
8,PYQL,≤ 0.25
9,NYFG,≤ 0.25
10,EIQS,≤ 0.25
11,YYTQ,≤ 0.25
12,VLKH,≤ 0.25
13,EGVK,≤ 0.25
14,MNIR,≤ 0.25
15,LIQP,≤ 0.25
16,KPAT,≤ 0.25
17,VFWV,≤ 0.25
18,SFFY,≤ 0.25
19,CEIP,≤ 0.25
20,WLDD,≤ 0.25
21,HTDK,≤ 0.25
22,PGDS,≤ 0.25
23,MAKI,≤ 0.25
24,PIYM,≤ 0.25
25,ATDD,≤ 0.25

row,Variant,enrichment ratio
1,SPRV,≤ 0.25
2,KDFR,≤ 0.25
3,MLDR,≤ 0.25
4,IKKR,≤ 0.25
5,NGYT,≤ 0.25
6,TWEC,≤ 0.25
7,SDYR,≤ 0.25
8,EFTY,≤ 0.25
9,PTLL,≤ 0.25
10,HNQC,≤ 0.25
11,GWPG,≤ 0.25
12,EDID,≤ 0.25
13,RYIH,≤ 0.25
14,NMDH,≤ 0.25
15,QVVN,≤ 0.25
16,NSQM,≤ 0.25
17,NEDG,≤ 0.25
18,YPYA,≤ 0.25
19,TLPK,≤ 0.25
20,TTHI,11.5
21,EINV,≤ 0.25
22,FIRI,≤ 0.25
23,HLNK,≤ 0.25
24,DFTV,≤ 0.25
25,KAMH,≤ 0.25

row,Variant,enrichment ratio
1,EYAS,≤ 0.25
2,MFND,≤ 0.25
3,GFLW,≤ 0.25
4,EFFN,≤ 0.25
5,TVAM,6.16
6,VEGV,≤ 0.25
7,YDVR,≤ 0.25
8,RADP,≤ 0.25
9,IIIL,≤ 0.25
10,VPHM,≤ 0.25
11,IQVF,≤ 0.25
12,TCIT,≤ 0.25
13,DALQ,≤ 0.25
14,LIIP,≤ 0.25
15,HNAK,≤ 0.25
16,HSTD,≤ 0.25
17,QLQK,≤ 0.25
18,QFPT,≤ 0.25
19,HRKT,≤ 0.25
20,SCTP,≤ 0.25
21,RLIR,≤ 0.25
22,RKTT,≤ 0.25
23,GWVV,≤ 0.25
24,KSTS,≤ 0.25
25,YIMP,≤ 0.25

row,Variant,enrichment ratio
1,TDVD,≤ 0.25
2,KSNP,≤ 0.25
3,HWPK,≤ 0.25
4,VMAI,≤ 0.25
5,MSDN,≤ 0.25
6,FGWP,≤ 0.25
7,VEFG,1.06
8,FDMC,≤ 0.25
9,GHYW,≤ 0.25
10,DQYC,≤ 0.25
11,RISF,≤ 0.25
12,DMVG,≤ 0.25
13,HSRR,≤ 0.25
14,FMKD,≤ 0.25
15,QEMC,≤ 0.25
16,RSPK,≤ 0.25
17,MHLC,≤ 0.25
18,MFKT,≤ 0.25
19,ICDN,≤ 0.25
20,ENKT,≤ 0.25
21,FTEP,≤ 0.25
22,TNDF,≤ 0.25
23,FKCL,≤ 0.25
24,DYPW,≤ 0.25
25,MLFE,≤ 0.25

row,Variant,enrichment ratio
1,WSGW,≤ 0.25
2,PAAK,≤ 0.25
3,SSYY,0.922
4,NIWI,≤ 0.25
5,DRCC,≤ 0.25
6,WFYC,≤ 0.25
7,HEAE,≤ 0.25
8,VTGS,≤ 0.25
9,HTFC,≤ 0.25
10,NMVE,≤ 0.25
11,YGIH,≤ 0.25
12,RHMM,≤ 0.25
13,PTQM,≤ 0.25
14,SLFF,≤ 0.25
15,MRGP,≤ 0.25
16,THTI,6.67
17,DHPP,≤ 0.25
18,REMS,≤ 0.25
19,VDAD,≤ 0.25
20,HDDA,≤ 0.25
